In the supplement of paper PMC10326071:
This is one part of the list. Most values come without repeats; read them as rough.

system: SARS-CoV-2 nsp3 SARS-unique domain core (SUD-core, nsp3 residues 413-676); test: apparent dissociation constant Kd (single-concentration BLI fit); higher = weaker binding; settings: 100 µM; 25 °C

SMILES	apparent dissociation constant Kd
O=c1[nH]cnc2[nH]ncc12	1030 µM
COc1cc2c(cc1OC)-c1[nH]nc(Nc3cccc(F)c3)c1C2	178 µM
O=c1[nH]c(=O)n([C@@H]2O[C@H](CO)[C@@H](O)[C@H]2O)cc1F	45 µM
CCNC(=O)C#Cc1ccc2c(C(=Nc3ccc(CN(C)C)cc3)c3ccccc3)c(O)[nH]c2c1	2590 µM
Nc1nccc(=O)[nH]1	168 µM
CN(C)Cc1ccc(-c2cnn3c(-c4cccc(NC(=O)c5cccc(C(F)(F)F)c5)c4)ccnc23)cc1	4770 µM
CS(=O)(=O)CCNCc1ccc(-c2ccc3ncnc(Nc4ccc(OCc5cccc(F)c5)c(Cl)c4)c3c2)o1	5090 µM
Nc1ncc(-c2ccc(C(=O)N3CCNCC3)cc2)nc1-c1ccc(C(F)(F)F)cc1	1830 µM
[N-]=[N+]=N[C@@H]1[C@H](O)[C@@H](n2ccc(=O)[nH]c2=O)O[C@H]1CO	159 µM
O=c1[nH]c(=O)n([C@H]2C[C@H](O)[C@@H](CO)O2)cc1Br	126 µM
NC(=O)c1ccccc1Nc1ccnc(Nc2cccc(O)c2)n1	1990 µM
Nc1nnc(Sc2ncc([N+](=O)[O-])s2)s1	750 µM
O=C(/C=C/c1ccc(O)c(O)c1)c1ccc(O)cc1O	223 µM
Oc1ccc(/C=C/c2cc(O)cc(O)c2)cc1	20.8 µM
COc1cc2nccc(Oc3ccc(NC(=O)c4cn(C(C)C)c(=O)n(-c5ccc(F)cc5)c4=O)cc3F)c2cc1OC	1460 µM
Cc1ccc2c(NS(=O)(=O)c3ccccc3Cl)cccc2c1Oc1ncccc1-c1ccnc(N[C@H]2CCCNC2)n1	512 µM
CCCC(=O)Nc1nc2c(ncn2[C@@H]2O[C@@H]3COP(=O)(O)O[C@H]3[C@H]2OC(=O)CCC)c(=O)[nH]1	66.6 µM
